In PMC10726135:
This is one part of the list. At the low end of the ranking, values are background and their order means little. Measured with an extract: partners may take part in the binding.

The sequences below were run against T1, HNF4alpha8 (COS-7 nuclear extract) (UniProt P41235-5) (assay: protein-binding microarray). Conditions: COS-7 nuclear extract on double-stranded Agilent 4x180k PBM; binding buffer, salt, pH and temperature not given; high values mean tight binding; double strand, one strand shown; sequences stand for … in …GCCTAGGGAGATTAGAGTATCGGTCGA.
T1 sequence: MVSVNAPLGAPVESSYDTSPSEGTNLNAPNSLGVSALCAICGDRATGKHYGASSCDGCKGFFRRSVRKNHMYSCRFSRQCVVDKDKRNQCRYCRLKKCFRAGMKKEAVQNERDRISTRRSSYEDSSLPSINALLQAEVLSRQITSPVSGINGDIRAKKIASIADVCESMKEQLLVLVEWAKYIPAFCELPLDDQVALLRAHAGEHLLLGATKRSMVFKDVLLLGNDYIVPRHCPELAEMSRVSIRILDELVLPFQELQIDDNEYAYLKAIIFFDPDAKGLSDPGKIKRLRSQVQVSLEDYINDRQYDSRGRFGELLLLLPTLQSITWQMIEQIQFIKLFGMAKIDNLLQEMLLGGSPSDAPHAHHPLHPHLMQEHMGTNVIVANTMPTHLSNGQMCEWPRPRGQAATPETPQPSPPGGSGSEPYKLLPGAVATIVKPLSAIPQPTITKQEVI

Sequence	binding signal (log2 normalized intensity)
ATGGATGAATTTTATCACTCCATCAAGGGG	-1.28
AGGCACACTCTATTATGTAAAACAGACAGG	-0.412
AGCAATGCTGAGTATGCAGCGGGCAGCCCG	-1.26
CATCCCCCCAAAGGCTCTCTGTTGACCACC	3.84
GACTCCCCAGCAGGCAGACTGGCTCCGCTG	-1.3
TAAAATGGACTTTGTGGGCCAAAAGCAGCC	2.65
TAGCATTTTGCAGAGACGGCAAGCCATAGT	-1.36
GAGACCAAATATTAGAACAAACGACGCTCC	-1.32
TAATCAACACTGACAGATTCCTGCTAACAG	-1.28
TAAACTAAGATATTGGTAAGTTAAGTAACT	-0.317
GGTTTGAATCCCGGGAATCCTCAGCCTTCT	-1.31
AAGATGAAAGACGAAAGGGACTTTGATCTT	7.26
GCCAGATTGAGAAACACATTCTTAGACAAC	-1.17
CCCAGAGGTCAAACTATCTGAGGTGGTCCA	1.8
CTGGGGCCGGGAGCAGGGAGCGAGACGCTG	-1.34
AAGGATTATTACATGTTTACCCACATACAA	0.38
TTACTGGTGAACATAAATCGCAAATATTTA	-1.22
AAAAGAAGAAAAAACAGGTGTTCTTTCCCT	-1.29
GCATGGTTTACTGAAATAGGTAAGCTGGCC	0.356
TGAGTGCTTCAGTCCAAAAAGTGGTGGTGT	1.37

Sequence	binding signal (log2 normalized intensity)
TGAAGCGACCCCTCGAGGCAACCTTTGACC	9.25
TCCTGAGCAGTCCCTTCCCCCCTCCTCATT	4.55
CAAGGAAAACTACACTCTTGCTAAACCCTC	-1.38
ACAGATGTAGACATTGGAATGCGGGCTCCA	0.955
ACCCACCCACACCTCCCCTTTGTTTAACTT	2.79
ATAAAACACTGACATCATCGCAGAAAGCTC	-1.28
GTCCTGGCAGGCTTCGAAAAATGGGTCTGG	-1.19
ATTCTCCCTGCAGTCCTCTGCTTATCTGGC	0.265
GTCAGGAGTACAGGTAGGATCAAGGGTGGA	0.29
TTTTAAGTCACCAGATGAGATAGGAGGTCA	2.27
AATGTGGGGAGCACATGGCATGATCCCTGA	-0.163
ACATGATAGGTTACCTTGACCAAAGTACAG	3.05
GGATGGAATTTAAAACATCTTTGAAGAGCA	-1.22
GGAGTCTGGCTGCCCTGGGGTGACAGCTTT	0.341
GACTGTCTTAGGAAAGAACAGGTCAAAGGT	5.06
AATATCTCAGCACATGGCAGTGTACACTAG	0.805
GCGCAGACGGCGGATCCTCCCAGCCTGGAG	-1.44
CTGAACATGGTGACACACACCTCCAGCCAC	-1.38
AAGGCCAGAGAAAGAGAGAGTTAGTTCTGC	-1.32
CGGGTGAAGGTTAAATAGCTCATTAAGCTT	-1.2
